Drawing on PubChem BioAssay (NCI), this text covers GI50 and TGI for 31 compounds.

In this experiment the test system is NCI-H322M lung. As to the kind of experiment: NCI tumour cell line growth inhibition, 48 h.

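Cells were grown in 96-well plates and exposed to each compound for 48 hours at five concentrations; endpoints were interpolated linearly between bracketing concentrations, or set to the highest concentration if not reached. GI50 marks 50% less growth. TGI: concentration producing complete growth inhibition.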

For the compound `CC(C)(C)CC(C)(C)NCc1cc(C(C)(C)C)cc(CNC(C)(C)CC(C)(C)C)c1O`, the GI50 was 4.5 µM and the TGI was 17 µM.

`CCOC(=O)/C(C#N)=C/c1ccnc2ccccc12` yielded a TGI of over 100 µM.

For `COc1ccc(N2C(=O)C3c4[nH]c5ccc(F)cc5c4C4CCC(c5ccccc5)CC4C3C2=O)cc1` (stereo unspecified), the TGI was over 100 µM.

Turning to `COc1cc(CNc2ccccc2C(=O)N2CCN(C(=O)c3cc(-c4cc(OC)c(OC)c(OC)c4)n4nc(-c5ccccc5)cc4n3)CC2)cc(OC)c1OC`, the GI50 was 5.65 µM and the TGI is over 100 µM.

In the case of `COc1ccc(C(=O)c2cc3c(N)c(C(=O)Nc4ccc(C)cc4)sc3nc2C)cc1`, the GI50 was 5.01 µM and the TGI came out at 40 µM.

Turning to `CC1=Nc2sc3c(c2C2=NCCN12)CCCC3`, the TGI is over 100 µM.

Consider `CN(C)CCCn1nc(N)c2nc3cc(Cl)ccc3nc21`, for which the TGI amounted to 98.1 µM.

Turning to `CCN(CC)CCNC(=O)c1cn2c(ccc3sc4ccccc4c(=O)c32)n1`, the TGI stood at 19.4 µM.

Take `N#CC1=C(N)NC(N2CCOCC2)=NC12Nc1ccccc1N2`: the GI50 is 74.1 µM and the TGI was over 100 µM.

`Cc1cc(N(CCC#N)S(C)(=O)=O)ccc1C=Nc1ccc(C(=O)NN2C(=O)/C(=C/c3ccc(N(CCC#N)CCC#N)cc3C)N=C2c2cc([N+](=O)[O-])ccc2Cl)cc1` yielded a TGI of over 100 µM.

With `CCc1cc(CCC(=O)Nc2c(C)cccc2C)[nH]n1`, the TGI was over 100 µM.

For `Cn1c2ccc(Br)cc2c2c3c(c4c5ccccc5[nH]c4c21)C(=O)N(O)C3=O`, the GI50 is 0.72 µM and the TGI is 2.23 µM.

Take `Cc1nc(N2CCC3(CC2)CO[C@@H](C)[C@H]3N)c(CO)nc1Sc1ccnc(N)c1Cl`: the GI50 is 0.376 µM and the TGI was over 100 µM.

Compound `O=[N+]([O-])C1Cc2ccccc2OC1c1ccccc1` (stereo unspecified) returned a TGI of over 100 µM.

For `Cc1csc(/N=C\c2c(O)c3ccccc3oc2=O)n1`, the TGI was over 100 µM.

Compound `CN(c1ccccc1Cl)S(=O)(=O)c1ccc([N+](=O)[O-])cc1` came in with a TGI of over 100 µM.

With `CCCCCCCCCCCCCCCCCC(=O)OCC(COC(=O)CCCN)OC(=O)CCCN` (stereo unspecified), the TGI was 31.2 µM.

Take `CC(C)=CCC/C(C)=C/CC/C(C)=C/CC/C(=C/CC/C(C)=C\CC/C(C)=C/CC/C(C)=C/CC/C(C)=C/Cc1cc(O)ccc1O)CO`: the TGI was over 86.1 µM.

Compound `COC(=O)C1[C@H](c2cc(OC)c(OC)c(OC)c2)OC(=O)C1(C(=O)OC)C(=O)c1ccc2c(c1)OCO2` (stereo partly specified) had a TGI of over 100 µM.

As for `NC(=O)c1cccc(Nc2nccc(Nc3cccc4[nH]ncc34)n2)c1`, the GI50 was 9.77 µM and the TGI is over 25 µM.

Turning to `COc1cccc(NC(=O)c2sc3nc4c(cc3c2N)C(=O)CCC4)c1`, the GI50 is 3.27 µM and the TGI is over 100 µM.

As to `C[N+](C)(C)CC(=O)N/N=C(\C(=O)NC1=C(Cl)C(=O)c2ccccc2C1=O)C(C#N)c1csc(-c2ccc([N+](=O)[O-])cc2)n1` (stereo unspecified), the TGI was over 100 µM.

On to `Cc1cc(N2CCSCC2)nc(NC2CCCC(Nc3ccnc4cc(Cl)ccc34)C2)n1` (stereo unspecified), for which the GI50 was 1.96 µM and the TGI was found to be 4.84 µM.

In turn, `O=[N+]([O-])CCc1cccc([N+](=O)[O-])c1` returned a TGI of over 100 µM.

Compound `O=c1c(=O)c2c(Br)sc(Br)c2c1=O` came in with a TGI of over 100 µM.

For the compound `CCOC(=O)c1sc2[n+](c1C)C(=O)/C(=C/c1ccc([N+](=O)[O-])cc1)S2`, the TGI is over 100 µM.

`O=C1CCCCCCCCCCC1CN1CCCCC1` (stereo unspecified) yielded a TGI of over 100 µM.

`COc1ccc(-c2c3c(n(C4OC(COC(C)=O)C(OC(C)=O)C(OC(C)=O)C4OC(C)=O)c(=S)c2C#N)CC(C)(C)CC3=O)cc1` (stereo unspecified) displayed a TGI of over 100 µM.

As to `CCN(CC)CCCNC(=O)c1c2c(n3ccccc13)C(=O)c1ncccc1C2=O`, the GI50 was 0.522 µM and the TGI amounted to 3.55 µM.

As to `CC(=O)N=C1N(/C=C2\C(=O)Oc3ccccc3C2=O)C(=O)/C(=C/c2ccc(Cl)cc2Cl)N1C`, the TGI is over 100 µM.

`O=C(O)C(Cl)(c1ccccc1)c1ccccc1`: the TGI was over 100 µM.
